Among the data in PubChem BioAssay (NCI) are TGI and GI50 values, retold here.

Values joined by “and” are separate entries in the source; they are usually repeats but may differ in a detail not shown here. Identical values can stand only once.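 A five-concentration, 48-hour dose response in 96-well plates underlies each endpoint, interpolated linearly between surrounding concentrations. GI50 marks 50% less growth. TGI: concentration producing complete growth inhibition.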 Numbered stars: 1 amine (or outer) side, 2 acyl side, 3 side chain; on linkers, the order of the positions; unused ones are H or OH. Bridge positions count the residues as written; N and C are the ends. Square brackets hold non-standard residues; d marks the D form. Peptide text beside a SMILES is read from it. I, II: the chains in the order shown. Actinocin(9to1) = Cc1c2oc3c(C)ccc(C(=O)[*:1])c3nc-2c(C(=O)[*:2])c(N)c1=O; NMeY = CN[CH](Cc1ccc(O)cc1)C(=O)O; Sar = CNCC(=O)O

The subject of the assay is NCI-H322M lung. Kind of assay: NCI anticancer screen, dose series, 48 h.

Consider `CCCCOC(=O)CNC(=O)OC/C=C/C#CC#C/C=C/COC(=O)NCC(=O)OCCCC`, for which the TGI was over 10 µM.

Compound `COc1ccc2occ(CCC(=O)O)c2c1` registered a TGI of over 100 µM. On the same count and under the same terms, next, `CCOC(=O)NC(Nc1ccc(C)cc1)(C(F)(F)F)C(F)(F)F`: over 100 µM; `CCOc1ncn(-c2ccc(NC(=S)Nc3ncccn3)cc2)n1`: over 100 µM. Same read-out and setting: next, `C/C=C/C(CC(O)(C(F)(F)F)C(F)(F)F)=N/NC(N)=S`: over 10 µM; `NC(=S)N/N=C(\CC1OC(=O)c2ccccc21)c1ccc(Cl)cc1` (configuration not stated): over 100 µM. For the compound `Cc1ccc(S(=O)(=O)c2[nH]cc(/C(=C\C3CCCCC3)[N+](=O)[O-])c2C2CCCCC2)cc1`, the TGI worked out at 3.06 µM. On the same count and under the same terms, next, `CC(=O)CCn1ncc(Cl)c(Cl)c1=O`: 31.3 µM; `Cc1cn2c(=O)c3ncn(C4OC(CO)C(O)C4O)c3n(C)c2n1` (configuration not stated): over 100 µM; `COc1cc(C2c3cc4c(cc3OC(N3CCCCC3)C2C)OCO4)cc(OC)c1O` (configuration not stated): 44.3 µM. Still for that read-out and setting: next, `C[C@H]1[C@H]2[C@H]3CC[C@@H]4[C@@]5(C)CC[C@H](O)C(C)(C)[C@@H]5CC[C@@]4(C)[C@]3(C)C[C@H](O)[C@@]2(C)C[C@H]2O[C@]21C`: 58.3 µM; `COC(=O)C1=C(OC(=O)/C(=C/c2ccc(Cl)cc2)c2ccc(Cl)cc2)C(C(=O)OC)[C@@]2(O)[C@@H](C(=O)OC)[C@H](C)C[C@@H]1[C@@H]2C(=O)OC` (some centres not stated): over 100 µM; `O=C1Sc2cc3ccccc3cc2C(=O)Sc2ccc(Br)cc21`: 29.5 µM.

Consider `S=C(Nc1ccc(Cl)cc1)Nc1ccc(-c2nc3ccccc3s2)cc1`, for which the GI50 is 21.1 µM and the TGI is 87.2 µM.

With `CO[C@@]12C[C@@H](C)C3=CCC(C)=C3CC1=C(C)C(=O)O2`, the TGI is over 100 µM. Compound `COc1cc(OC)cc(Oc2nc3ccccc3nc2C(F)(F)F)c1` displayed a TGI of over 100 µM.

Regarding `NC(N)=NS(=O)(=O)c1ccc(NNc2c3ccccc3nc3c(C(=O)Nc4ccc(S(=O)(=O)Nc5ncccn5)cc4)cccc23)cc1`, the TGI is over 100 µM. Compound `N#CN/C(N)=N/CO` came in with a TGI of over 100 µM. Still for that read-out and setting: next, `Cc1ccc(/C=N/Nc2cc(C)c3cccc(C)c3n2)s1`: 16.3 µM. With `Nc1nn2cc(F)cnc2c1C(=O)Nc1cncc(F)c1N1CCC(C(=O)N2CCN(C3COC3)CC2)CC1`, the GI50 is 0.133 µM and the TGI came to 3.62 µM.

As for `COC(=O)C[C@](O)(CCCC(C)(C)O)C(=O)O[C@@H]1C(OC)=C[C@]23CCCN2CCc2cc4c(cc2[C@H]13)OCO4`, the TGI was 5.15 µM and 0.556 µM.

Take `Cc1cc(C)c2c(n1)sc1c(Nc3ccc(Cl)cc3)ncnc12`: the GI50 was 0.914 µM and the TGI was over 100 µM.

`CCOC(=O)C(C#N)C1=CC(=O)C(=O)c2ccc(OC)cc21` (configuration not stated) gave a TGI of 79.8 µM. Take `CN(CCSCCN(C)C(=O)OC(C)(C)C)C(=O)OC(C)(C)C`: the TGI was over 100 µM. In the case of `Cc1[nH]c(=O)nc2nc3ccc(Cl)cc3c(NCCNCCO)c12`, the TGI was found to be 21.4 µM.

`CC(=O)N=C1N(/C=C2\C(=O)Oc3ccccc3C2=O)C(=O)/C(=C/c2cccc(Cl)c2Cl)N1C` registered a TGI of over 100 µM.

Consider `Cc1c2oc3c(C)ccc(C(=O)NC4C(=O)NC(C(C)C)C(=O)N5CCCC5C(=O)N(C)CC(=O)N(C)C(Cc5ccc(O)cc5)C(=O)OC4C)c3nc-2c(C(=O)NC2C(=O)NC(C(C)C)C(=O)N3CCCC3C(=O)N(C)CC(=O)N(C)C(Cc3ccc(O)cc3)C(=O)OC2C)c(N)c1=O` (configuration not stated) (I: TVP[Sar][NMeY] / II: TVP[Sar][NMeY]; ester I:1-I:C, II:1-II:C; linker I:N-II:N via Actinocin(9to1); configuration not given here), for which the GI50 was 0.0285 µM and 0.0106 µM; the TGI is over 0.77 µM. The compound `O=C(Nc1ccccc1)c1cc(S(=O)(=O)NC2=NC(c3ccccc3)c3cc(Cl)ccc3N2)c(SSc2cc(Cl)c(C(=O)Nc3ccccc3)cc2S(=O)(=O)NC2=NC(c3ccccc3)c3cc(Cl)ccc3N2)cc1Cl` (configuration not stated) came in with a TGI of over 100 µM.

The compound `COc1cc(C2C3C=CC=C4CC=CC(=C43)C3CCC(=O)N32)cc(OC)c1OC` (configuration not stated) displayed a TGI of over 100 µM. In the case of `CC[As](CC)SC[C@H](C)C(=O)N1CCC[C@H]1C(=O)O`, the GI50 is 1.37 µM and the TGI was determined as 2.68 µM. The corresponding values for `CO/N=C(/C)c1cccc(Nc2cc(-n3nnc4ccccc43)nc3ccccc23)c1` are 11.6 µM and 71.8 µM. The compound `O=C1C=CC(=O)c2c1ccc1c3ccccc3n(CCCCCn3c4ccccc4c4ccc5c(c43)C(=O)C=CC5=O)c21` had a TGI of over 100 µM. The compound `CC(C)NC(=O)OCc1c(COC(=O)NC(C)C)c(-c2cc[n+](COC(=O)C3CC3)cc2)n2c1CCC2` registered a TGI of over 100 µM. On the same count and under the same terms, next, `c1ccc(N=C(N2CCCC2)N(CCN2CCCC2)c2ccccc2)cc1`: over 100 µM; `O=C(O)c1nnsc1-c1ccc(-c2snnc2C(=O)O)cc1`: over 100 µM.

On to `COc1ccc(/C=C2\CCNC2=O)cc1`, for which the TGI was over 100 µM. `COc1cccc(CC(C)=C(c2ccc(OCCN(C)C)cc2)c2ccc(OCCN(C)C)cc2)c1`: the GI50 is 4.27 µM and the TGI was 8.57 µM. The compound `CCN(CC)Cc1ccc(C(=S)Nc2ccc(Cl)cc2)s1` gave a TGI of 23.5 µM.

As to `CC(C)C1=CC23CCC4C(C)(C(=O)O)CCCC4(C)C2CC1C1C(=O)N(c2ccc(Cc4ccc(N5C(=O)C6C7CC8C9(C)CCCC(C)(C(=O)O)C9CCC8(C=C7C(C)C)C6C5=O)cc4)cc2)C(=O)C13` (configuration not stated), the TGI was 24.9 µM. Regarding `O=C1CCC(Cl)=CC2CCCN12` (configuration not stated), the TGI was over 100 µM.
